This note sets out measurements from PubChem BioAssay AID1159614 (National Center for Advancing Translational Sciences (NCATS), 2016).

Each structure is given as a SMILES string. Among all 45,000 compounds or so, about 65 (0.1%) were called active. The call rests on the fitted dose curve; in most records, active means well fitted activation curve with a large enough effect; inconclusive means small, poorly fitted or top-dose-only effect; inactive means no such curve, though single readings can be large or run the other way. Some of the results follow.

The assay addresses Galactocerebrosidase (Homo sapiens) (UniProt P54803). The assay is described as follows: A Novel Cell-Based Assay to Identify Small Molecules for B -Galactocerebrosidase. Further: 0% is about no effect; nearly all actives have a fitted effect of over 65% in size. The following applies: 145M-Twi-hGALC-G270D cells (Twitcher mouse brain line with human GALC G270D), HMU-beta-Gal fluorescence, 48 h; series mostly up to 57.5 µM; activation: at the top concentration. The procedure, abridged: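 Brain-derived Twitcher mouse 145M-Twi cells stably expressing human GALC-G270D or wild-type GALC, treated live, then residual GALC activity read by fluorescence of HMU-b-Gal substrate (0.1 mM final) in citrate-phosphate buffer pH 5.2 with sodium taurocholate. Signal increase indicates enhancement.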
UniProt P54803, sequence (P54803 whole entry, looked up): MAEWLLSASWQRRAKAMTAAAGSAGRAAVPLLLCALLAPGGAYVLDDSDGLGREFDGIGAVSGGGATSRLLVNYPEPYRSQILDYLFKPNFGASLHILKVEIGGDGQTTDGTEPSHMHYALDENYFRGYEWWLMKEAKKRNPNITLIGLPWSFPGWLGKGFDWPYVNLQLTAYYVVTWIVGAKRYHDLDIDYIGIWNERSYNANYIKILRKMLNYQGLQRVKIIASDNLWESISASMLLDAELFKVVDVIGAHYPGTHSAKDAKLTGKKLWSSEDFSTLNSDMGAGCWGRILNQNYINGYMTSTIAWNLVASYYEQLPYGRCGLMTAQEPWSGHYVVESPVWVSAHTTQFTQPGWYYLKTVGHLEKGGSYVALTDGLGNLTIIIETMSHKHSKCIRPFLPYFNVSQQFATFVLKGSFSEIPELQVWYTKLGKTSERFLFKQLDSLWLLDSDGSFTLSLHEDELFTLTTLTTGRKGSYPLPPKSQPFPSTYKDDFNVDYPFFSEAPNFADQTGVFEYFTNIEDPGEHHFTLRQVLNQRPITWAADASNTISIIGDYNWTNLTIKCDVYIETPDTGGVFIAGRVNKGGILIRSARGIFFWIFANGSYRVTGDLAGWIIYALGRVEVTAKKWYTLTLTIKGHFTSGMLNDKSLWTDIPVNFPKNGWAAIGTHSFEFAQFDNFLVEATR
`CCCN(Cc1cc2cccc(C)c2[nH]c1=O)C(=O)c1cccc(Cl)c1`: the “activation” value is inactive: -17.9%.
Next, `N#Cc1c(-c2ccccc2)cc(-c2ccccc2)nc1SCC(O)CS(=O)(=O)Cc1ccc(Cl)cc1` (stereo unspecified): inactive: -22.8%; `O=C1CN(C(=O)c2ccc(S(=O)(=O)N3CCCC3)cc2)C(c2ccccc2)c2cc(F)ccc2N1` (stereo unspecified): inactive: -12.7%; `Cc1cccc(C)c1NC(=O)Cn1nnc(S(=O)(=O)c2ccccc2)c1N`: inactive: -15.2%.
As to `Cc1ccccc1-c1noc(-c2ccccc2OCC(=O)Nc2cccc([N+](=O)[O-])c2)n1`, the “activation” value was inactive: -13.6%.
Next, `CCOC(=O)c1cc2c(=O)n3ccccc3nc2n(C(C)C)c1=NC(=O)C(C)(C)Oc1ccc(Cl)cc1`: inactive: -12.6%.
For `Cc1c(C(=O)NCCN(C)C)oc2c1-c1nn(Cc3cccc(Cl)c3)cc1CC2`, the “activation” value was inactive: -15.2%.
In the case of `Cc1nc(-c2ccc(F)cc2)sc1CCNC(=O)Cc1ccc(F)cc1` it was inactive: 2.16%.
In the case of `CN(C)c1ccc(Nc2ncnc3c2c(-c2ccccc2)cn3-c2cccc(Cl)c2)cc1` it was inactive: -3.26%.
Next, `CCn1cc(/C=C(\NC(=O)c2cc(OC)c(OC)c(OC)c2)C(=O)NCCCn2ccnc2)c2ccccc21`: inactive: -23%; `Cc1cc(NC(=O)Cc2ccccc2)cc(-c2nc3ccccc3o2)c1O`: inactive: -21.2%.
As for `COc1ccc(CCC(=O)NC2CC(=O)N(c3ccc(F)cc3)C2)cc1` (stereo unspecified), the “activation” value is inactive: -6.65%.
Next, `COc1ccccc1N1CCN(C(=O)CN2C(=O)COc3ccc(S(=O)(=O)N4CCOCC4)cc32)CC1`: inactive: -5.97%; `CCN(CC)C(=O)c1c(-c2ccccc2)c(-c2ccccc2)nn(CC)c1=O`: inactive: -11%.
In the case of `COc1ccc(-c2nc3sc(CCNC(=O)c4ccc(Br)o4)c(C)n3n2)cc1` it was inactive: 3.87%.
In the case of `CCN(Cc1nc(-c2ccc(OC)c(OC)c2)no1)S(=O)(=O)c1ccc(OC)cc1` it was inactive: 0.971%; in that of `Cc1cccc(S(=O)(=O)c2cn(Cc3ccccc3)c3cc(N4CCCCC4)c(F)cc3c2=O)c1`, inactive: -10%.
Consider `COC(=O)c1ccccc1NS(=O)(=O)c1cc2c(cc1C)N(C)CCO2`, for which the “activation” value is inactive: -3.49%.
In the case of `CSc1ccccc1NC(=O)CCS(=O)(=O)c1nc(-c2ccc3c(c2)OCO3)cc(C(F)(F)F)n1` it was inactive: -19.4%.
As for `Cc1ccc(S(=O)(=O)C(CNS(=O)(=O)c2cc(F)ccc2F)c2cccs2)cc1` (stereo unspecified), the “activation” value was inactive: -21.1%.
For the compound `COc1cc(CNC(=O)c2cnc(SC)nc2-c2ccccc2)cc(OC)c1OC`, the “activation” value is inactive: -9.22%.
Next, `CC(C)(C)OC(=O)N1CCC(c2c(C(=O)NC3CCCCC3)cnn2-c2ccc(F)cc2F)CC1`: inactive: -12.2%; `O=C(CSc1nc(=O)n(Cc2ccccn2)c2c1CCC2)Nc1ccccc1`: inactive: -12.7%; `Cc1noc(C)c1S(=O)(=O)N(CC(=O)Nc1ccc(F)cc1F)c1ccc(C(C)C)cc1`: inactive: -19%.
Next, `CCCNC(=O)c1ccc2c(c1)nc1n2CCCCC1`: inactive: -16.1%; `Cc1ccc(NC(=O)C2CCN(S(=O)(=O)c3cccc4nsnc34)CC2)cc1F`: inactive: 16.9%; `COc1ccc(Cn2ccc3nc(C)c(C(=O)Nc4cccc(SC)c4)cc3c2=O)cc1`: inactive: -12.2%.
In the case of `Oc1c(C(Nc2ccccn2)c2ccccc2F)ccc2cccnc12` (stereo unspecified) it was inactive: -11.1%.
`COc1cccc(CNC(=O)Cn2ncn3nc(-c4cccs4)cc3c2=O)c1`: the “activation” value was inactive: -7.5%.
In the case of `O=C(O)c1ccccc1C(=O)Nc1ccc(Br)c2cccnc12` it was inactive: -6.64%; in that of `CCN1CCN(c2oc(-c3ccc(COc4ccccc4C)o3)nc2C#N)CC1`, inactive: -12.6%.
For `CC(=O)c1ccc(NS(=O)(=O)c2ccc3c(c2)NC(=O)CCS3)cc1`, the “activation” value is inactive: -22.4%.
Next, `COc1ccc(NC(=O)C(=O)NCCc2csc3nc(-c4ccccc4F)nn23)cc1OC`: inactive: -5.41%.
In the case of `CCCN(CCC)CCCNC(=O)c1cc2c(=O)n(C)c3ccccc3c2s1` it was inactive: -9.37%; in that of `COc1ccc(-c2c(C)c3ccc(O)c(CN4CCC(C)CC4)c3oc2=O)cc1OC`, inactive: -5.18%; in that of `CC(=O)Nc1ccccc1-c1nc2ccccc2n(C(C)C(=O)Nc2ccccc2C(F)(F)F)c1=O` (stereo unspecified), inactive: -10.9%.
Next, `COc1ccc(C(Nc2ccccn2)c2ccc3ccc(C)nc3c2O)cc1C` (stereo unspecified): inactive: -3.72%.
`COc1cccc(CNC(=O)c2ccc(-c3nc(CSc4ccccc4)c(C)o3)cc2)c1`: the “activation” value was inactive: -2.62%.
Next, `CCn1cc2nc(SCc3ccccc3Cl)n(Cc3ccc(OC)cc3)c(=O)c2n1`: inactive: -38.8%.
As for `COc1cc2c(c(OC)c1)C(c1cccc(F)c1F)CC(=O)N2` (stereo unspecified), the “activation” value is inactive: -12%.
Consider `CN1CCN(c2ncnc3c2cnn3-c2cccc(Cl)c2)CC1`, for which the “activation” value is inactive: -9.45%.
Next, `Cc1ccc(CNC(=O)c2cc(=O)c3cc(C)ccc3o2)cc1`: inactive: -8.46%; `COc1cc(OC)c(OC)cc1/C=C/c1nc2cc3ccccc3cc2c(=O)n1-c1ccccc1Br`: inactive: -9.3%; `COc1ccccc1CNS(=O)(=O)c1ccc2[nH]c3c(c2c1)CCCCC3`: inactive: -2.04%.
Next, `CCC(Sc1nc2ccccc2c2nc(CCc3c(C)n[nH]c3C)nn12)C(=O)Nc1ccc(F)cc1` (stereo unspecified): inactive: -11.5%; `CC1=C(c2ccc(C)cc2)S(=O)(=O)N(Cc2ccc(C(=O)NCc3cccc(C)c3)cc2)C1=O`: inactive: -3.67%; `COc1cccc(-n2nnc3c(sc4nc(C)cc(C)c43)c2=O)c1`: inactive: 2%.
In the case of `Cc1c(Cl)cccc1NC(=O)N1CCC(CN2CCCC2)CC1` it was inactive: -6.91%; in that of `CSc1ccc(CNC(=O)CCn2ccc3cc(S(=O)(=O)N4CCC(C)CC4)ccc32)cc1`, inactive: 6.78%.
Regarding `COc1ccc(N2CCN(C(=O)c3cnc(N4CCCC4)nc3C)CC2)cc1`, the “activation” value is inactive: -11.8%.
Next, `COc1ccc(-c2cc3nc(-c4ccccc4)cc(C(F)(F)F)n3n2)cc1`: inactive: -3.67%.
Take `COc1ccc(CCNC(=O)Cc2c(C)c3c(cc(C)c4c(C)coc43)oc2=O)cc1`: the “activation” value was inactive: -11%.
In the case of `COc1ccc(CCNC(=O)CN(c2ccccc2OC)S(=O)(=O)c2ccc(C)cc2)cc1` it was inactive: -5.97%; in that of `COC(=O)c1c(NC(=O)c2cc(=O)c3ccc(C)c(C)c3o2)sc2c1CCCC2`, inactive: -14.8%; in that of `O=C(Nc1sc2c(c1C(=O)Nc1ccccc1Cl)CCCC2)c1ccccc1F`, inactive: -7.14%.
For the compound `Cc1ccc(NC(=O)CSc2nc(C)c(Cc3ccccc3)c(=O)[nH]2)cc1`, the “activation” value was inactive: -33.6%.
In the case of `COC(=O)c1ccc(NC(=O)CSc2nc3ccc(OC)cc3[nH]2)cc1` it was inactive: -13.4%.
As for `COCCCNC(=O)Cn1c(=O)n(Cc2ccc(C(=O)NCc3ccc(C)cc3)cc2)c(=O)c2ccccc21`, the “activation” value is inactive: -8.26%.
Next, `O=C(NCc1ccccc1Br)C1CCCN(C(=O)N2CCOc3ccccc32)C1` (stereo unspecified): inactive: -37%.
In the case of `COc1cc(OC)c(NC(=O)c2nnn(Cc3ccc(C)cc3)c2N)cc1Cl` it was inactive: -14%; in that of `CCc1ccc(NC(=O)c2cc(S(=O)(=O)NC3CCCC3)ccc2F)cc1`, inactive: -39%.
